According to the RNAGym collection of RNA variant scans (doi:10.1093/nar/gkz1192):
Read counts are not given, so values of variants with three or more changes are uncertain.

B1: CPEB3 Ribozyme (parent)
chain: UAACAGGGGGCCACAGCAGAAGCGUUCACGUCGCAGCCCCUGUCAGAUUCUGGUGAAUCUGCGAAUUCUGCUGUAUAUCUC

Variants of: B1
Test: self-cleavage, relative activity (ratio to wild type); higher = more cleavage; in vitro, sequencing
Procedure, shortened: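 CPEB3 self-cleaving ribozyme mutant libraries were made by rounds of error-prone PCR, barcoded, and transcribed in vitro with T7 RNA polymerase for 5 hours at 37°C. Cleavage occurred during transcription and a 15 min DNase I step before EDTA stop. RNAs were reverse transcribed with template switching and Illumina-sequenced, with DNA sequencing mapping barcodes to variants. Relative activity is the variant's cleaved/total read fraction divided by wild type's (minimum 5 reads), averaged across three batches.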

Variant	self-cleavage
UAACAGGGGGCCACAGCAGAAGCGUUCACGUCGCAGCCCCUGUCGGAUGCUGGUGAAUCUGCGAAUUCUGCUGUAUAUCAC	0.16
UAACAGGGGGCCACAGCAGAAGCGUUCACGUCGCAGCCCCUGUCUGACUCUGGUGAAUCCGCGAAUUCUGCUGUAUAUCUC	0.23
UAACAGGGGGCCACAGCAGAAGCGUUCACGUCGCAGCCCCUGUCUGGUUCUGGUGAAUCUGCGAAUUAUGCUGUAUAUCUC	0.14
UAACAGGGGGCCACAGCAGAAGCGUUCACGUCGCAGCCCCUGUCGGAUUCUGGUGAAUCUGCGAAUUCUGCUGCACAUCUC	1.12
UAACAGGGGGCCACAGCAGAAGCGUUCACGUCGCAGCCCCUGUCGGAUUCUGGUGAAUCUGCGAAUUCUGCCGUUUAUCUC	1.04
UAACAGGGGGCCACAGCAGAAGCGUUCACGUCGCAGCCCCUGUCUGAUUCUGGUGAAUCUCCGUAUUCUGCUGUAUAUCUC	0.17
UAACAGGGGGCCACAGCAGAAGCGUUCACGUCGCAGCCCCUGUCUGAUUCUGGUGACUCUGCGAGUUCUGCAGUAUAUCUC	0.08
UAACAGGGGGCCACAGCAGAAGCGUUCACGUCGCAGCCCCUGUCGGAUUCUGGUGAAUCUGCGAAUACUGCUGUAUAUCUU	0.23
UAACAGGGGGCCACAGCAGAAGCGUUCACGUCGCAGCCCCUGUCUGAUUCUGGUGAAUCUGCGAAUUCCGCUGUAUACCUC	0.36
UAACAGGGGGCCACAGCAGAAGCGUUCACGUCGCAGCCCCUGUCUGAUUCGGGUGUAUCUGCGAAUUCUGCUGUAUAUCCC	0.1
UAACAGGGGGCCACAGCAGAAGCGUUCACGUCGCAGCCCCUGUCUGAUUAUGGUGAAUCUGCGAGUUCUGCUGUAUAUCUC	0.15
UAACAGGGGGCCACAGCAGAAGCGUUCACGUCGCAGCCCCUGUCGGAUUCUGGUGAAUCUGCGAAUUCAGCUGUAUAUGUC	0.74
UAACAGGGGGCCACAGCAGAAGCGUUCACGUCGCAGCCCCUGUCGGAUUCUGGUGAAUCUGCGAAUCCUGCUGAAUAUCUC	0.25
UAACAGGGGGCCACAGCAGAAGCGUUCACGUCGCAGCCCCUGUCUGAUUCAGGUGAAUCCGCGAAUUCUGCUGCAUAUCUC	0.6
UAACAGGGGGCCACAGCAGAAGCGUUCACGUCGCAGCCCCUGUCGGAUUCUGGUGAAUCUGCGAAUUCUGCUGUAUACCAC	1.08
UAACAGGGGGCCACAGCAGAAGCGUUCACGUCGCAGCCCCUGUCGGACUCUGGUGAAUCCGCGAACUCUGCGGUAUAUCAC	0.09
UAACAGGGGGCCACAGCAGAAGCGUUCACGUCGCAGCCCCUGUCUGAUACUGGUGGGUCUGCAAAUUCUGCUGUAUAUCAU	0.02

Variant	self-cleavage
UAACAGGGGGCCACAGCAGAAGCGUUCACGUCGCAGCCCCUGUCUGAUUCUGGUGAAUCUGCGAAUCCUGCGGUAUAUCUC	0.29
UAACAGGGGGCCACAGCAGAAGCGUUCACGUCGCAGCCCCUGUCGGAUUCAGGUGAUUCUGCGAACUCUGCUGUAUAUCUC	0.09
UAACAGGGGGCCACAGCAGAAGCGUUCACGUCGCAGCCCCUGUCGGAUUCUGGUGAAUCUGCGAAUACUGCUGUAUAUGUC	0.55
UAACAGGGGGCCACAGCAGAAGCGUUCACGUCGCAGCCCCUGUCUGAUUCUGGUGAGUUUGCGAAUUCUGCCGUCUAUCUC	0.12
UAACAGGGGGCCACAGCAGAAGCGUUCACGUCGCAGCCCCUGUCGGAUUCUGGCGAAUCUGCGUAUUCAGCUGUAUAUCUC	0.26
UAACAGGGGGCCACAGCAGAAGCGUUCACGUCGCAGCCCCUGUCGGAUCCUGGUGAAUCCGCGAAUUCUGCUGUAUAUCUC	0.71
UAACAGGGGGCCACAGCAGAAGCGUUCACGUCGCAGCCCCUGUCGGAUUCUGGUGAAUCAGCGAAUUCUGCUGUUUACCUC	0.45
UAACAGGGGGCCACAGCAGAAGCGUUCACGUCGCAGCCCCUGUCUGAUUCUGGUGAACCUGCGAAUCCUGCUGUAUAUCUC	0.17
UAACAGGGGGCCACAGCAGAAGCGUUCACGUCGCAGCCCCUGUCUGAUUCUGGUGAAUCUGCGGAUUCUGCCGUAUAUCUC	0.38
UAACAGGGGGCCACAGCAGAAGCGUUCACGUCGCAGCCCCUGUCGGAUUCUGGUGAAUCAGCGAAUUCUGCCGUAUAUCUC	0.72
UAACAGGGGGCCACAGCAGAAGCGUUCACGUCGCAGCCCCUGUCUGAUCCUGGUGAAUCUGCGAAUUCUGCUGUAUAUCCC	0.43
UAACAGGGGGCCACAGCAGAAGCGUUCACGUCGCAGCCCCUGUCUGAUUCUGAUAAAUCUGCGAAUUCUGCUGUAUAUCUC	0.29
UAACAGGGGGCCACAGCAGAAGCGUUCACGUCGCAGCCCCUGUCUGAUUCUGAUGAAUCUGCGAAUUCUGCUGUAUAUCGC	0.9
UAACAGGGGGCCACAGCAGAAGCGUUCACGUCGCAGCCCCUGUCUGAUUCUGGAGAGUCUGCGAAUCCAGCUCUAUAUCUC	0.09
UAACAGGGGGCCACAGCAGAAGCGUUCACGUCGCAGCCCCUGUCGGAUUCUGGUGAAUCUGCGAAUUCAGCUGUAUUUCUC	0.39
UAACAGGGGGCCACAGCAGAAGCGUUCACGUCGCAGCCCCUGUCUGAUUCUGGUGAAUCUGCGAGCUCUGCUGUAUAUCUC	0.15
UAACAGGGGGCCACAGCAGAAGCGUUCACGUCGCAGCCCCUGUCUGAUUCUGGUGAAUCAGCGAAUUCUGCUGUAUAACUC	1.2
